# The supplement of paper PMC3334620
# Over roughly 33,000 sequences, “E-score (-0.5 to 0.5)” has its median near -0.012; the highest 2% begin near 0.27. This is one part of the list.
# Molecular target: T1, Vhr1 (UniProt P40522)
# T1 sequence: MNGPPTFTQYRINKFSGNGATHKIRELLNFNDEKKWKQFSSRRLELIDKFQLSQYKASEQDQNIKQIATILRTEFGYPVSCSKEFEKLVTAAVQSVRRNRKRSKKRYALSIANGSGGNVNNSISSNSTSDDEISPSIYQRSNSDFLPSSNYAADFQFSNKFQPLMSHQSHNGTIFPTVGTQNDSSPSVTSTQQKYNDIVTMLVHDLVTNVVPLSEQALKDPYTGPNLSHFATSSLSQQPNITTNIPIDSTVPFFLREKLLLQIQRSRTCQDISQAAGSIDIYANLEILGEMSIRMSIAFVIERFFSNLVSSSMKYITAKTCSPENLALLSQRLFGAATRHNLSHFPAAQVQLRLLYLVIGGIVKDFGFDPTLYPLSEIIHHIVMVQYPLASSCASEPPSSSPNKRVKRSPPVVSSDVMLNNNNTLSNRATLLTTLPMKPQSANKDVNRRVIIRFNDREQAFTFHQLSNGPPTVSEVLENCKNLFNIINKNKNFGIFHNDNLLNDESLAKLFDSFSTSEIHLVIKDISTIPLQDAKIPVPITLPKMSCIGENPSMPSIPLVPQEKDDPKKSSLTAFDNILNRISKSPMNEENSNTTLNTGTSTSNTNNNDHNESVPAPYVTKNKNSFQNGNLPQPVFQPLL
# Assay: PBM E-score (8-mer binding enrichment) (E-score (-0.5 to 0.5)); higher = stronger / more preferred TF binding; most listed sequences are background and not binding sites
# Conditions: protein concentration: 200 nM; construct: GST-full length
# Procedure, shortened: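 Full-length yeast transcription factors or their DNA-binding domains, GST-tagged and expressed with PURExpress, were applied at about 100-200 nM to universal all-10-mer Agilent arrays. These arrays had been made double-stranded by primer extension on fresh or once-stripped slides. Detection used fluorescent anti-GST, normalisation used masliner, and E-scores for ungapped eight-base words pooled with reverse complements came from the Universal PBM Analysis Suite.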
row,Sequence,PBM E-score
1,CTGAAGTA,-0.0497
2,ACAACGTG,0.0397
3,GGCTAGAC,-0.0958
4,CGGCAACG,-0.121
5,CTGCTTAA,-0.151
6,CCAGTTAG,0.0464
7,CTGCCCAG,-0.167
8,CTGCAAAG,-0.179
9,GGGGAGCA,-0.12
10,AACCGGAG,0.12
11,GCCGCCAC,-0.0771
12,CGGTAATC,0.105
13,CTATCCTA,-0.155
14,ATGGTTAG,0.201
15,CTCCACAC,0.0336
16,GCAAATCC,-0.072
17,AGCATCCA,-0.0946
18,ACTCATGG,0.317
19,AGGGGCTG,0.0964
20,ATTTCTTC,-0.116
21,GCCTGTTA,-0.0838
22,AGATGAAG,-0.175
23,GGCAACCA,0.0446
24,CCACCGCC,0.163
25,ATTTGGCA,-0.00549

row,Sequence,PBM E-score
1,GAGACTCA,0.36
2,CCATTGCA,0.0485
3,CCGTAGCC,-0.0654
4,ACTTACTG,0.0822
5,CAATTGAC,-0.0985
6,CTCGAACA,0.00089
7,ACCGACCG,0.0736
8,AGTTCTAC,-0.219
9,AGGGAGTC,0.343
10,AAGGTCGT,-0.0909
11,AAAGCCTC,-0.257
12,GGATACCA,0.14
13,GATACCGA,-0.0169
14,GAGAGTAC,-0.182
15,CTACGGAA,-0.13
16,AACTTGAC,0.0407
17,CCCTGCAC,-0.0585
18,GCATTAGA,-0.0512
19,GCGCCGAC,0.0249
20,AGTGGAGC,0.00228
21,ATAAATCA,0.194
22,TATGCCAA,0.00701
23,CCGGTGAA,-0.076
24,CGGAGCTA,-0.0331
25,AGGTGGCA,0.0216

row,Sequence,PBM E-score
1,AAGAGATC,-0.249
2,CATCTACG,0.141
3,AGCCCCAC,0.0558
4,AAACTCGC,-0.0834
5,CCACTTAA,-0.283
6,ACAGTTGC,-0.102
7,ATTTACCA,-0.0901
8,CCGCTTCC,0.0896
9,AGGTGCTC,-0.245
10,TACCTCGA,0.0438
11,CAGTAACG,-0.0249
12,TCCCATAA,-0.0361
13,AACACAGT,-0.0727
14,GGGCTGGA,-0.0152
15,CGTTCAAG,-0.247
16,ACAGTGGC,0.0105
17,GCAGAGGA,-0.128
18,AATGGTGT,0.169
19,ATATTTCC,0.142
20,CCTGTCCC,-0.0752
21,TATGCCGA,0.129
22,TGATCGAA,-0.00588
23,GTCGGCGA,-0.0179
24,CAGCTCAG,0.0364
25,AGGGCGGA,-0.12

row,Sequence,PBM E-score
1,ACCAAGTG,-0.0218
2,AGGGACTC,-0.0891
3,CGTGTCCA,0.0984
4,AGAACCTG,-0.0729
5,ATGTCGTA,-0.136
6,GATTAAAC,-0.0636
7,TAACGATA,0.104
8,CCCTTCAC,-0.219
9,GGTTCGTA,0.0419
10,CTGCCGTA,-0.18
11,GCACCATA,0.0521
12,TATCACAA,0.0919
13,CTTTTGTC,-0.138
14,GGTCGAAA,-0.227
15,GACCCTAC,0.036
16,AGGGCCTC,-0.168
17,CGCGGTAA,0.0767
18,AAGGCTGT,-0.154
19,GGTACTCA,0.281
20,ATAGCGAT,0.146
21,TAGAGCAA,-0.16
22,ATTCGAAG,-0.164
23,AGCTAAAA,-0.222
24,ATGGCATG,0.123
25,CATTTTAG,-0.0944

row,Sequence,PBM E-score
1,CGCTCCAC,-0.125
2,ACAGCCTC,-0.0546
3,TCTTTACA,0.0361
4,GCTCGGCC,-0.174
5,GCAAAGCA,-0.15
6,CTATCGAC,-0.0919
7,ACAGTACT,0.0536
8,CTCCCGTC,0.0119
9,AGGGCTCA,0.0814
10,AATCGGGA,-0.0677
11,ACAAATTC,0.0408
12,CAATCGGC,-0.0799
13,CCAAGCTC,-0.145
14,CACAATAA,0.0367
15,CAGTATTC,-0.0143
16,TGTGCCAA,0.127
17,GCCAAACA,0.0896
18,CCTGACAG,-0.0535
19,GCCGCACC,0.0812
20,CTGTACGC,0.0548
21,GCCGAAAA,-0.0398
22,AGTCAACT,0.144
23,CTAGTGCA,-0.0181
24,AAGTTCGA,-0.0835
25,ATGCCTGC,-0.00581

row,Sequence,PBM E-score
1,CTACGTAA,-0.105
2,ATGGAGGC,-0.19
3,CATACAGA,0.153
4,TATGGCAA,-0.16
5,CCTATCTC,-0.0188
6,CTGGAGCA,-0.0948
7,GACGGCTC,-0.119
8,AAATACCC,-0.0527
9,AAGCTTGT,-0.049
10,GCCGTCAA,-0.189
11,CGAGCTTA,-0.103
12,CCTGATCC,0.124
13,AGCGACAA,-0.136
14,AAGGTTTG,-0.035
15,CTTCTGCC,-0.136
16,GTTTGGCA,-0.147
17,CACGGGGG,-0.0342
18,TGACCTCA,-0.11
19,CTTGGCAA,-0.277
20,CAATGCTG,-0.0939
21,GGAGTACA,0.0826
22,CAAAAGCG,0.0566
23,GGAATTCA,0.0856
24,ACAAAACT,-0.0403
25,CGTCGTAC,-0.0401

row,Sequence,PBM E-score
1,ACTGGAGC,-0.108
2,GGCACGAA,0.0919
3,CAGATCTG,-0.00609
4,AATTAAGT,-0.207
5,CGACAAAC,-0.00285
6,AATTCAGA,-0.128
7,CCAGCAGA,0.0731
8,CTGCAAGC,-0.059
9,CATCGGAG,-0.127
10,CTGATCAA,-0.0933
11,AATCTAGG,-0.0313
12,ACAGTGTG,0.142
13,AGCGTGTA,-0.0491
14,CCAAAAGG,-0.308
15,GTTGATCA,0.0765
16,GAATAGAC,-0.152
17,GTGGGTGA,0.331
18,ACTGATGA,0.0606
19,GAAACCGA,-0.0749
20,CCTCAATC,0.0673
21,ACATAATA,0.186
22,ACTTGGAA,0.0755
